Measurements: PubChem BioAssay AID651820 (National Center for Advancing Translational Sciences (NCATS), 2012)
The campaign covered roughly 340,000 compounds. About 12,000 (3.5%) were called active. Inconclusive results, whose numbers are uncertain, are shown with a selection of clear calls. The call rests on the fitted dose curve; in most records, active means well fitted inhibition curve with a large enough effect; inconclusive means small, poorly fitted or top-dose-only effect, or another doubt; inactive means no such curve, though single readings can be large or run the other way. Potencies of inconclusive entries are left out as doubtful fits.

Assay: qHTS Assay for Inhibitors of Hepatitis C Virus (HCV)
Details: Huh7.5.1 HCVcc-Cre (HCVcc is cell-culture hepatitis C virus) infection, luciferase reporter, 44 h; activity change, negative = inhibition: at 41.8 µM (top of the series) unless noted
Method in brief: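 Compounds are dispensed onto cells plated 4 h earlier at 1,000 per well, with HCVcc-Cre virus (about 0.5 moi) added next. Following 44 h of culture, luminescent signal is measured for 15 sec after 15 min with substrate at room temperature.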
On the % scale 0 is the no-effect control and ±100 the full control effect; potency means the concentration at half of the fitted maximal effect; tags describe the fitted curve by direction and shape.

Compound | Potency | activity change, negative = inhibition
N#C/C(=C/c1ccc(N2CCOCC2)o1)c1nc2ccccc2[nH]1 | inactive | 
CCc1ccc2nc(N3CCN(C(=O)C(C)(C)C)CC3)sc2c1 | inconclusive [inhibitor, partial curve] | 
Cc1ccc(NC(=O)CCC(=O)N/N=C/c2ccc(O)cc2)cc1 | inconclusive [inhibitor, single point] | 
C[C@@H]1CN([C@@H](C)CO)C(=O)Cc2cc(NC(=O)Nc3ccc4c(c3)OCO4)ccc2O[C@@H]1CN(C)C(=O)NC1CCCCC1 |  | inactive: -12.1% [at 8.37 µM]
COC(=O)c1c(NC(=O)CN2C(=O)NC3(CCc4ccccc4C3)C2=O)sc2c1CCCCC2 (configuration not stated) | inconclusive [inhibitor, partial curve] | 
CCn1nnnc1SCC(=O)N1N=C(c2cccs2)CC1c1cccs1 (configuration not stated) | inactive | 
NNC(=O)c1ccc2ccccc2n1 | inactive | 
C/C(=N\O)c1ccc2c3ccccc3n(C)c2c1 | inconclusive [inhibitor, single point] | 
O=c1[nH]cnc2c1c(-c1ccccc1)cn2-c1cccc(Cl)c1 | inactive | 
N#CCSc1nc2c(cc1C#N)CCCCCC2 | inconclusive [inhibitor, single point] | 
COc1ccc(C(C(=O)NCc2ccccc2)N(Cc2ccco2)C(=O)c2snc(C(N)=O)c2N)cc1OC (configuration not stated) | inconclusive [inhibitor, full curve, poor fit] | 
Cc1cc(OCC(O)CNC(C)(C)C)ccc1Cl (configuration not stated) | inconclusive [inhibitor, single point] | 
O=C(CCC(=O)N1CCN(c2ccccc2F)CC1)N1CCN(c2ccc(F)cc2)CC1 | inconclusive [inhibitor, single point] | 
c1ccc2nc(-c3ccc(-n4ccnc4)cc3)ccc2c1 | inconclusive [inhibitor, single point] | 
Cc1cc2nc(/C=C/c3nc4cc(C)c(C)cc4[nH]3)[nH]c2cc1C | inactive | 
C[C@H](CO)N1C[C@H](C)[C@@H](CN(C)C(=O)Nc2ccccc2)Oc2c(NS(=O)(=O)c3cn(C)cn3)cccc2C1=O | inactive | 
Clc1cccc(Nc2ncnc3ccc(Br)cc23)c1 | inconclusive [inhibitor, full curve, poor fit] | 
Cc1cc(C)c(-c2csc(NC(=O)c3cc([N+](=O)[O-])ccc3N3CCOCC3)n2)c(C)c1 | inconclusive [inhibitor, single point] | 
CC(C)[C@H]1COCCS(=O)(=O)N1Cc1ccccc1-c1cccc(Cl)c1 | inconclusive [inhibitor, single point] | 
COc1ccc(Cl)cc1NC(=O)C1CCN(C(=O)Nc2ccccc2)CC1 | inconclusive [inhibitor, full curve] | 
CCc1ccc(NC(=O)[C@H](Cc2c[nH]c3ccccc23)NC(=O)[C@@H]2Cc3ccccc3CN2)cc1 | active: 3.55 µM | 

Compound | Potency | activity change, negative = inhibition
Ic1ccccc1CN[C@@H]1C2CCN(CC2)[C@@H]1C(c1ccccc1)c1ccccc1 | inconclusive [inhibitor, partial curve, poor fit] | 
O=C(NCC(=O)N1CCCC(C(F)(F)F)C1)c1ccc(Oc2ccccc2)cc1 (configuration not stated) | inconclusive [inhibitor, single point] | 
Cc1cc(C(=O)c2ccc(C(C)(C)C)cc2)c(NC(=O)CCl)s1 | inconclusive [inhibitor, single point] | 
COc1cccc(CN2CCN(C(c3ccccc3)c3ccccc3)CC2)c1O | inactive | 
Cc1cc(C)c(S(=O)(=O)c2ccccc2)c(OC(=O)c2c(Cl)cc(Cl)cc2Cl)n1 | inconclusive [inhibitor, single point] | 
COc1ccc(NS(=O)(=O)c2cc(NC(=O)c3cccs3)ccc2N2CCOCC2)cc1 | inconclusive [inhibitor, single point] | 
C[C@H](NC(=O)c1nc[nH]c1C(=O)OCc1ccccc1)c1ccccc1 | inconclusive [inhibitor, single point] | 
CN(CC1COc2ccccc2O1)C(=O)c1ccc(Cl)c(S(=O)(=O)N2CCCCCC2)c1 (configuration not stated) | inconclusive [inhibitor, single point] | 
Cc1ccc(-n2ncc3c(=O)n(CC(=O)N4CCCc5ccccc54)cnc32)cc1C | inconclusive [inhibitor, single point] | 
CCOC(=O)c1sc(NC(=O)CSCc2c(C)noc2C)nc1C | inconclusive [inhibitor, single point] | 
CC(=NCCc1c(C)[nH]c2ccc(OCc3ccccc3)cc12)C1=C(O)CC(c2ccccc2)CC1=O (configuration not stated) | inconclusive [inhibitor, partial curve] | 
CCC(CC)C(=O)Nc1cccc(C(=O)NCCc2ccc(S(N)(=O)=O)cc2)c1 | inconclusive [inhibitor, single point] | 
CC(C)c1ccc(NC(=O)C(c2ccccc2)N2CCOCC2)cc1 (configuration not stated) | inactive | 
Cc1cccc(N2CCN(Cc3nc(-c4ccc(F)cc4F)oc3C)CC2)n1 | inconclusive [inhibitor, partial curve] | 
Cc1noc(-c2ccc(Cl)cc2)c1C(=O)O/N=C(\N)c1ccc(C(C)(C)C)cc1 | inconclusive [inhibitor, single point] | 
CCCCCCN1C=C/C(=C\C=C(C#N)C#N)c2ccccc21 | inconclusive [inhibitor, partial curve] | 
Cc1c(C)c2c(OCC(=O)N3CCC[C@H]3C(=O)O)cc3c(c2oc1=O)CCC(C)(C)O3 | inactive | 
Cc1ccc(O)c(-n2nc3ccccc3n2)c1 | inconclusive [inhibitor, single point] | 
O=C(NCC1OCCc2ccccc21)c1ccc(NC(=O)c2ccc(Cl)cc2)cc1 (configuration not stated) | active: 4.47 µM | 
N/C(=N\OC(=O)CC1CCCCC1)c1ccc(Br)cc1 | inactive | 
C/C(=C\C(=O)Nc1cc(C)on1)c1ccccc1 | inactive | 
